Measurements as given in PubChem BioAssay AID686979 (National Center for Advancing Translational Sciences (NCATS), 2013).
Out of some 420,000 compounds screened, about 50,000 (12%) were called active. The inconclusive results got no clear call from the source; some entries with a clear call stand among them for comparison. Calls follow the shape of the dose curve; as a rule, active = well fitted inhibition curve with a large enough effect; inconclusive = small, poorly fitted or top-dose-only effect; inactive = flat fitted curve, though single readings scatter. No potency is given beside an inconclusive call; the fits are too rough.

Test: qHTS for Inhibitors of human tyrosyl-DNA phosphodiesterase 1 (TDP1): qHTS in cells in presence of CPT; also: nearly all actives have a fitted effect of over 55% in size
Details: chicken DT40 Tdp1-/-;hTDP1 cells + 20 nM CPT, ATP luminescence, 48 h; activity change, negative = growth inhibition: at 46.2 µM (top of the series) unless noted
In short: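 Chicken DT40 Tdp1-/- cells complemented with human TDP1, 400 cells/well, exposed to compounds plus 20 nM camptothecin for at least 48 h at 37 C; viability read as ATP content by CellTiter-Glo luminescence.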
% is scaled to controls: 0 for no effect and ±100 for the full control effect; potency is read from the fitted curve at half-maximal effect; tags tell the direction and shape of the fitted curve.

Row | Compound | Potency | activity change, negative = growth inhibition
1 | CC(Cc1ccccc1Sc1ccccc1O)N(C)C (centres undefined) | inconclusive [inhibitor, single point] | –
2 | COC(=O)[C@]1(C)N[C@H](CN(C)S(=O)(=O)c2ccc(-c3ccccc3)cc2)[C@@H]2C(=O)N(Cc3ccccc3)C(=O)[C@@H]21 | inconclusive [inhibitor, single point] | –
3 | CN1C2CC(OC(=O)C(CO)c3ccccc3)CC1C(O)C2 (centres undefined) | inactive | –
4 | CC(=O)Nc1cc(-c2ccc(C(=O)NC3CC3)cc2)cn2c(-c3ccc(F)c(Cl)c3)cnc12 | inconclusive [inhibitor, single point] | –
5 | COc1cc(Cn2c(N)c(C(=O)NCc3ccco3)c3nc4ccccc4nc32)cc(OC)c1OC | inconclusive [inhibitor, partial curve, poor fit] | –
6 | CC(C(=O)OC1CC2CCC(C1)N2C)c1ccc(Br)cc1 (centres undefined) | active: 20.6 µM | –
7 | Cn1c(O)c(C(=NCCN2CCCCC2)c2ccccc2Cl)c(=O)n(C)c1=O | – | inconclusive: -38.8% [inhibitor]
8 | O=C(COc1ccccc1/C=C1/NC(=O)NC1=O)Nc1ccccc1 | active: 20.6 µM | –
9 | C=CCN1CCc2cccc3c2[C@H]1Cc1ccc(O)c(O)c1-3 | active: 16.4 µM | –
10 | CCn1cc(CN2CCCC(C(=O)c3cccc(C(F)(F)F)c3)C2)cn1 (centres undefined) | – | inconclusive: -31.9% [inhibitor]
11 | Cc1cccc(C)c1NC(=O)Cn1c(=O)n(CC2CCC(C(=O)NCCc3ccccc3)CC2)c(=O)c2ccccc21 (centres undefined) | inconclusive [inhibitor, single point] | –
12 | O=C(O)[C@@H](O)[C@H](O)[C@H](O)[C@@H](O)C(=O)O | inactive | –
13 | CC(C)CNP(=S)(c1ccccc1)C(C)(C)C (centres undefined) | inconclusive [inhibitor, single point] | –
14 | CC(C)CCNC(=O)Cn1c(=O)oc2cc(S(=O)(=O)N3CCc4ccccc43)ccc21 | inconclusive [inhibitor, single point] | –
15 | COC1/C=C/C=C(\C)Cc2cc(O)c(Cl)c(c2)N(C)C(=O)CC(OC(=O)C(C)C)C2(C)OC2C(C)C2CC1(O)NC(=O)O2 (centres undefined) | active: 0.0164 µM | –
16 | O=C(NCC1=C(c2ccc3ccccc3c2)C[C@@H]2CC[C@H]1N2Cc1ccco1)c1ccc([N+](=O)[O-])cc1 | inconclusive [inhibitor, single point] | –
17 | Cc1cccc(NC(=O)C(C)N2CC=C(c3ccccc3)CC2)c1 (centres undefined) | inconclusive [inhibitor, partial curve] | –
18 | COc1ccc(CCNCc2ccsc2)cc1OC | inactive | –
19 | CCN(c1ccccc1)S(=O)(=O)c1ccc(C(=O)NCC(c2ccccc2OC)N2CCCC2)cc1 (centres undefined) | inconclusive [inhibitor, single point] | –
20 | COc1ccccc1CC(=O)N1CCN(CCc2ccccc2)CC1 | inactive | –
21 | COc1cc(CC2(CCc3ccncc3)C(=O)NC(=O)NC2=O)cc(OC)c1OC | inactive | –
22 | NC(=O)[C@@H]1CCCN1C(=O)[C@H](Cc1ccccc1)NC(=O)[C@@H]1CCCN1C(=O)[C@@H](N)Cc1ccc(O)cc1 | – | inactive: -3.9% [at 4.12 µM]
23 | CCCCCCn1c(O)c(C=NCCN2CCOCC2)c(=O)[nH]c1=O | inactive | –

Row | Compound | Potency | activity change, negative = growth inhibition
24 | Cc1cc(C)c(-n2c(O)c(/C=N/N3CCCCC3c3cccnc3)c(=O)[nH]c2=O)c(C)c1 (centres undefined) | inactive | –
25 | COC(=O)C1=C(c2ccc(F)cc2F)C[C@@H]2CC[C@H]1N2C(=O)NCCOc1ccccc1 | active: 23.1 µM | –
26 | CC1(C)CC[C@]2(C)CC[C@]3(C)C4C[C@@H]5OO[C@@]6(O5)C(CCCC6(C)C)[C@]4(C)CC[C@@]3(C)C2C1 (some centres undefined) | active: 8.2 µM | –
27 | CC(=O)Nc1nc(CCl)cs1 | inconclusive [inhibitor, partial curve, poor fit] | –
28 | Cc1cc(/C=C2\C(=O)NC(=O)N(C)C2=O)c(C)n1-c1ccc2c(c1)OCO2 | inconclusive [inhibitor, partial curve, poor fit] | –
29 | CC(C)(C)OC(=O)c1c(N)n(Cc2ccco2)c2nc3ccccc3nc12 | inconclusive [inhibitor, single point] | –
30 | O=C1NC(=O)C(=Cc2ccc(-c3ccccc3[N+](=O)[O-])o2)C(=O)N1 | active: 7.31 µM | –
31 | CCOc1ccc(Cn2c(=O)oc3ccc(C)cc32)cc1OC | inconclusive [inhibitor, single point] | –
32 | O=C1NCN(c2ccccc2)C12CCN(C(c1ccnc3ccccc13)c1nnnn1Cc1ccccc1)CC2 (centres undefined) | inconclusive [inhibitor, single point] | –
33 | CCCC(C)CC1(CCO)C(=O)NC(=S)NC1=O (centres undefined) | inactive | –
34 | CCOc1ccc(-n2c(O)c(/C=C3\C=Nc4ccccc43)c(=O)[nH]c2=O)cc1 | inconclusive [inhibitor, single point] | –
35 | CCCCC1(CCCC)C(=O)NC(=Nc2cccc(C)c2)NC1=O | active: 16.4 µM | –
36 | CCCc1nc2ccccc2c(=O)n1-c1cccc(OC)c1 | active: 18.4 µM | –
37 | COc1ccc(-c2ccc3c(c2)CN(c2cccc(Cl)c2)Cc2cnnn2-3)cc1 | inconclusive [inhibitor, single point] | –
38 | Cc1ccccc1N1C(=O)NC(=O)/C(=C\c2cc(C)n(C)c2C)C1=O | inactive | –
39 | COC(=O)C1=C(c2ccc(-c3ccccc3)c(F)c2)C[C@@H]2CC[C@H]1N2C(=O)N1CCc2cc(OC)c(OC)cc2C1 | inconclusive [inhibitor, single point] | –
40 | COc1cccc(Nc2nc(C(N)Cc3ccc(F)cc3)cs2)n1 (centres undefined) | active: 18.4 µM | –
41 | CCCNc1nc(-c2cc(C(=O)Nc3ccccc3)on2)cc(C(C)C)n1 | inconclusive [inhibitor, single point] | –
42 | CC1(C)N(O)C2CCCCC2N1O (centres undefined) | inconclusive [inhibitor, single point] | –
43 | CCCOc1ccccc1OCC(=O)N1CCN(CC(=O)N2CCOCC2)CC1 | inactive | –
44 | Cc1nnc(NC(=O)c2cccn(Cc3cccc(F)c3)c2=O)s1 | inconclusive [inhibitor, partial curve] | –
45 | COC(=O)C1=C(c2ccc(OCc3ccccc3)cc2)C[C@@H]2CC[C@H]1N2C(=O)NCCCCc1ccccc1 | inconclusive [inhibitor, single point] | –
46 | O/N=C1/C(=C\c2ccccc2)N2CCC1CC2 | – | inconclusive: -35.7% [inhibitor]

Row | Compound | Potency | activity change, negative = growth inhibition
47 | Cc1ccc(C)c(N2CCN(c3ncnc4onc(C)c34)CC2)c1 | inconclusive [inhibitor, partial curve, poor fit] | –
48 | COc1ccccc1N1CCN(Cc2ccc(Br)s2)CC1 | – | inconclusive: -31.3% [inhibitor]
49 | C/C(=N/O)c1ccc2ccc3ccccc3c2c1 | inconclusive [inhibitor, single point] | –
50 | Cc1oc(-c2ccc(F)cc2F)nc1CN1C[C@@H]2C[C@@H](C1)c1cccc(=O)n1C2 | inactive | –
51 | O=C1NCCOC(=O)[C@@H](Cc2ccc(F)cc2)CC/C=C/C[C@H]1CC(=O)N(CCO)Cc1ccccc1 | active: 20.6 µM | –
52 | C[C@H](CO)N1C[C@H](C)[C@@H](CN(C)Cc2ccccc2)Oc2c(NC(=O)c3ccncc3)cccc2C1=O | inconclusive [inhibitor, single point] | –
53 | CCc1ccc(CNC(=O)C2CCN(C(=O)c3ccc(-n4c(C)cc5ccccc54)s3)CC2)cc1 | active: 10.3 µM | –
54 | C[C@H](CCC(=O)O)[C@H]1CC[C@H]2[C@@H]3[C@H](O)C[C@@H]4C[C@H](O)CC[C@]4(C)[C@H]3CC[C@]12C | inconclusive [inhibitor, single point] | –
55 | Cc1c(N=Cc2c(O)n(Cc3ccco3)c(=O)[nH]c2=O)c(=O)n(-c2ccccc2)n1C | inactive | –
56 | COc1ccc(-c2coc3cc(OC(=O)N4CCOCC4)ccc3c2=O)cc1 | active: 13 µM | –
57 | Cc1[nH]c2ccccc2c1C(=O)CN1CC=C(c2ccccc2)CC1 | active: 16.4 µM | –
58 | COc1ccc(CN2CCc3nc(N4CCN(c5ccc(F)cc5)CC4)ncc3C2)c(OC)c1OC | active: 5.8 µM | –
59 | COc1ccccc1NC(=O)c1cn(CCC#N)nc1-c1cccc(Cl)c1 | inconclusive [inhibitor, single point] | –
60 | O=S(=O)(c1cc(Cl)cc(Cl)c1)N1Cc2cc(-c3cccc(F)c3)ccc2-n2nncc2C1 | inconclusive [inhibitor, single point] | –
61 | O=C(COc1ccc(Br)cc1)N1CCN(Cc2ccncc2)CC1 | inconclusive [inhibitor, single point] | –
62 | CC(=O)NCC(N)C(=O)c1ccc(C)cc1 (centres undefined) | inconclusive [inhibitor, single point] | –
63 | COC(=O)C1=C(c2cc3ccccc3o2)C[C@@H]2CC[C@H]1N2C(=O)NC1CCCCC1 | active: 18.4 µM | –
64 | Fc1cccc(CN2CCN(c3ccc(Cl)cc3)CC2)c1 | – | inconclusive: -32.2% [inhibitor]
65 | O=C(c1cc2cc(Br)ccc2[nH]1)N1CCC2(CC1)OCCO2 | inconclusive [inhibitor, single point] | –
66 | O=C1C(=Cc2ccccc2)N2CCC1CC2 | inactive | –
67 | CCOC(=O)c1c(C)n(Cc2ccc(F)cc2)c2ccc(O)cc12 | inconclusive [inhibitor, single point] | –
68 | Cc1c(Cl)cccc1NC(=O)c1oc2ccc(S(=O)(=O)N3CCC4(CC3)OCCO4)cc2c1C | active: 4.11 µM | –
69 | COc1ccc(-n2c(/C=C/c3ccc4c(c3)OCO4)nc3ccccc3c2=O)cc1 | active: 25.9 µM | –
